This is one part of the list. The list includes weakly bound sequences.

The assay addresses T1, MBP-FoxP3dN (UniProt Q99JB6).
T1 sequence: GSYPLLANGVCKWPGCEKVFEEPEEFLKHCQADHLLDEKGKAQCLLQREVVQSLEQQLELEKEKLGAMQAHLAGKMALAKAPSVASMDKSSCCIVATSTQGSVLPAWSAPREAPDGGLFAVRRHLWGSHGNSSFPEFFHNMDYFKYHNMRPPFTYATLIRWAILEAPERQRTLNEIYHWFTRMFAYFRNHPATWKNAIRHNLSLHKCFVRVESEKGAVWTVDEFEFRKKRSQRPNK
As to the kind of experiment: PD-seq (MBP pull-down with sequencing). The conditions noted are these: 20 mM Tris-HCl pH 7.5, 100 mM NaCl, 1.5 mM MgCl2, 0.4 uM protein, 0.1 uM dsDNA library, 30 min, room temperature, amylose pull-down; high values mean tight binding; double strand, one strand shown.
As for “GATGATTGTTCTCCCAGCTGATGAATTGAGGCATTCGAGTAAACAAATTTTCCTAATCTTTCTGTTCAAGCGCCATCTAC”, the binding signal (RPM ratio (pull-down/input)) amounted to 4.56. With “GATGATTGTTCTCCCAGCTGATGAATTCCGAGGTTCGAGTAAACAAATTTTCCTAATCTTTCTGTTCAAGCGCCATCTAC” the figure was 0.302.

As to “GATGATTGTTCTCCCAGCTGATGAATTACACGGTTCGAGTAAACAAATTTTCCTAATCTTTCTGTTCAAGCGCCATCTAC”, the binding signal (RPM ratio (pull-down/input)) was found to be 0.455. As for “GATGATTGTTCTCCCAGCTGATGAATTGGGCGTCTCGAGTAAACAAATTTTCCTAATCTTTCTGTTCAAGCGCCATCTAC”, the binding signal (RPM ratio (pull-down/input)) was found to be 2.95. The figure for “GATGATTGTTCTCCCAGCTGATGAATTATTTAATTCGAGTAAACAAATTTTCCTAATCTTTCTGTTCAAGCGCCATCTAC” is 0.435; for “GATGATTGTTCTCCCAGCTGATGAATTGGTCCATTCGAGTAAACAAATTTTCCTAATCTTTCTGTTCAAGCGCCATCTAC” it is 0.402; for “GATGATTGTTCTCCCAGCTGATGAATTGGGTCCATCGAGTAAACAAATTTTCCTAATCTTTCTGTTCAAGCGCCATCTAC” it is 0.339. With “GATGATTGTTCTCCCAGCTGATGAATTCTGCCCATCGAGTAAACAAATTTTCCTAATCTTTCTGTTCAAGCGCCATCTAC” the figure was 1.28. Regarding “GATGATTGTTCTCCCAGCTGATGAATTGCAGATTTCGAGTAAACAAATTTTCCTAATCTTTCTGTTCAAGCGCCATCTAC”, the binding signal (RPM ratio (pull-down/input)) is 0.644. For the sequence “GATGATTGTTCTCCCAGCTGATGAATTAGCCATTTCGAGTAAACAAATTTTCCTAATCTTTCTGTTCAAGCGCCATCTAC”, the binding signal (RPM ratio (pull-down/input)) was 1.23.

As to “GATGATTGTTCTCCCAGCTGATGAATTCCTCCGTTCGAGTAAACAAATTTTCCTAATCTTTCTGTTCAAGCGCCATCTAC”, the binding signal (RPM ratio (pull-down/input)) is 0.255.

As to “GATGATTGTTCTCCCAGCTGATGAATTGATACCTTCGAGTAAACAAATTTTCCTAATCTTTCTGTTCAAGCGCCATCTAC”, the binding signal (RPM ratio (pull-down/input)) amounted to 0.687. For the sequence “GATGATTGTTCTCCCAGCTGATGAATTTTGATAATCGAGTAAACAAATTTTCCTAATCTTTCTGTTCAAGCGCCATCTAC”, the binding signal (RPM ratio (pull-down/input)) was 0.576. As to “GATGATTGTTCTCCCAGCTGATGAATTAGTATAGTCGAGTAAACAAATTTTCCTAATCTTTCTGTTCAAGCGCCATCTAC”, the binding signal (RPM ratio (pull-down/input)) stood at 2.11. In the case of “GATGATTGTTCTCCCAGCTGATGAATTCGTTGGGTCGAGTAAACAAATTTTCCTAATCTTTCTGTTCAAGCGCCATCTAC”, the binding signal (RPM ratio (pull-down/input)) was 2.87.

As for “GATGATTGTTCTCCCAGCTGATGAATTCCAGCACTCGAGTAAACAAATTTTCCTAATCTTTCTGTTCAAGCGCCATCTAC”, the binding signal (RPM ratio (pull-down/input)) came out at 0.373. Turning to “GATGATTGTTCTCCCAGCTGATGAATTTTAGTCATCGAGTAAACAAATTTTCCTAATCTTTCTGTTCAAGCGCCATCTAC”, the binding signal (RPM ratio (pull-down/input)) was determined as 0.541. Turning to “GATGATTGTTCTCCCAGCTGATGAATTCCTAGAATCGAGTAAACAAATTTTCCTAATCTTTCTGTTCAAGCGCCATCTAC”, the binding signal (RPM ratio (pull-down/input)) came to 0.178. In the case of “GATGATTGTTCTCCCAGCTGATGAATTCCGAGACTCGAGTAAACAAATTTTCCTAATCTTTCTGTTCAAGCGCCATCTAC”, the binding signal (RPM ratio (pull-down/input)) came out at 0.45.

“GATGATTGTTCTCCCAGCTGATGAATTAAAGCGGTCGAGTAAACAAATTTTCCTAATCTTTCTGTTCAAGCGCCATCTAC”: the binding signal (RPM ratio (pull-down/input)) is 0.409. Take “GATGATTGTTCTCCCAGCTGATGAATTAGTGATATCGAGTAAACAAATTTTCCTAATCTTTCTGTTCAAGCGCCATCTAC”: the binding signal (RPM ratio (pull-down/input)) was 0.813.

On to “GATGATTGTTCTCCCAGCTGATGAATTGTTACCATCGAGTAAACAAATTTTCCTAATCTTTCTGTTCAAGCGCCATCTAC”, for which the binding signal (RPM ratio (pull-down/input)) came to 1.1.

“GATGATTGTTCTCCCAGCTGATGAATTGGTCCCGTCGAGTAAACAAATTTTCCTAATCTTTCTGTTCAAGCGCCATCTAC”: the binding signal (RPM ratio (pull-down/input)) stood at 0.305. With “GATGATTGTTCTCCCAGCTGATGAATTACACTGGTCGAGTAAACAAATTTTCCTAATCTTTCTGTTCAAGCGCCATCTAC” the figure was 0.443; with “GATGATTGTTCTCCCAGCTGATGAATTGCTCACCTCGAGTAAACAAATTTTCCTAATCTTTCTGTTCAAGCGCCATCTAC”, 0.467; with “GATGATTGTTCTCCCAGCTGATGAATTCCCGTTTTCGAGTAAACAAATTTTCCTAATCTTTCTGTTCAAGCGCCATCTAC”, 0.451. Turning to “GATGATTGTTCTCCCAGCTGATGAATTATCACATTCGAGTAAACAAATTTTCCTAATCTTTCTGTTCAAGCGCCATCTAC”, the binding signal (RPM ratio (pull-down/input)) worked out at 0.517. Regarding “GATGATTGTTCTCCCAGCTGATGAATTCAGACAGTCGAGTAAACAAATTTTCCTAATCTTTCTGTTCAAGCGCCATCTAC”, the binding signal (RPM ratio (pull-down/input)) was determined as 0.297. Consider “GATGATTGTTCTCCCAGCTGATGAATTGACGCAGTCGAGTAAACAAATTTTCCTAATCTTTCTGTTCAAGCGCCATCTAC”, for which the binding signal (RPM ratio (pull-down/input)) amounted to 0.764.

For “GATGATTGTTCTCCCAGCTGATGAATTCCACTCCTCGAGTAAACAAATTTTCCTAATCTTTCTGTTCAAGCGCCATCTAC”, the binding signal (RPM ratio (pull-down/input)) worked out at 0.422. For “GATGATTGTTCTCCCAGCTGATGAATTAAATTTATCGAGTAAACAAATTTTCCTAATCTTTCTGTTCAAGCGCCATCTAC”, the binding signal (RPM ratio (pull-down/input)) is 1.46. With “GATGATTGTTCTCCCAGCTGATGAATTGTCCCCCTCGAGTAAACAAATTTTCCTAATCTTTCTGTTCAAGCGCCATCTAC” the figure was 0.357.

As for “GATGATTGTTCTCCCAGCTGATGAATTCGAAAACTCGAGTAAACAAATTTTCCTAATCTTTCTGTTCAAGCGCCATCTAC”, the binding signal (RPM ratio (pull-down/input)) stood at 0.246. With “GATGATTGTTCTCCCAGCTGATGAATTAGATCTATCGAGTAAACAAATTTTCCTAATCTTTCTGTTCAAGCGCCATCTAC” the figure was 0.433. In the case of “GATGATTGTTCTCCCAGCTGATGAATTTCGCAAATCGAGTAAACAAATTTTCCTAATCTTTCTGTTCAAGCGCCATCTAC”, the binding signal (RPM ratio (pull-down/input)) is 0.634. With “GATGATTGTTCTCCCAGCTGATGAATTACCCGAATCGAGTAAACAAATTTTCCTAATCTTTCTGTTCAAGCGCCATCTAC” the figure was 0.184. Regarding “GATGATTGTTCTCCCAGCTGATGAATTAATCTTGTCGAGTAAACAAATTTTCCTAATCTTTCTGTTCAAGCGCCATCTAC”, the binding signal (RPM ratio (pull-down/input)) worked out at 0.322. With “GATGATTGTTCTCCCAGCTGATGAATTCCGTGGGTCGAGTAAACAAATTTTCCTAATCTTTCTGTTCAAGCGCCATCTAC”, the binding signal (RPM ratio (pull-down/input)) came to 0.539. As to “GATGATTGTTCTCCCAGCTGATGAATTCCATTACTCGAGTAAACAAATTTTCCTAATCTTTCTGTTCAAGCGCCATCTAC”, the binding signal (RPM ratio (pull-down/input)) worked out at 0.607.

For “GATGATTGTTCTCCCAGCTGATGAATTACGAACGTCGAGTAAACAAATTTTCCTAATCTTTCTGTTCAAGCGCCATCTAC”, the binding signal (RPM ratio (pull-down/input)) was found to be 0.383.
